Test results taken from article PMC4336329 (PLoS ONE, 2015).
The whole screen tested about 310,000 compounds, of which about 2,200 (0.71%) showed an effect of 50% or more. The effect is printed as a negative number. The list shows a part of the results.

These compounds were tested against human ether-à-go-go-related gene (hERG) potassium channel (human, UniProt Q12809) (assay: primary screen, population patch clamp on CHO cells stably expressing hERG).
Chain of human ether-à-go-go-related gene (hERG) potassium channel (Q12809 whole entry, looked up): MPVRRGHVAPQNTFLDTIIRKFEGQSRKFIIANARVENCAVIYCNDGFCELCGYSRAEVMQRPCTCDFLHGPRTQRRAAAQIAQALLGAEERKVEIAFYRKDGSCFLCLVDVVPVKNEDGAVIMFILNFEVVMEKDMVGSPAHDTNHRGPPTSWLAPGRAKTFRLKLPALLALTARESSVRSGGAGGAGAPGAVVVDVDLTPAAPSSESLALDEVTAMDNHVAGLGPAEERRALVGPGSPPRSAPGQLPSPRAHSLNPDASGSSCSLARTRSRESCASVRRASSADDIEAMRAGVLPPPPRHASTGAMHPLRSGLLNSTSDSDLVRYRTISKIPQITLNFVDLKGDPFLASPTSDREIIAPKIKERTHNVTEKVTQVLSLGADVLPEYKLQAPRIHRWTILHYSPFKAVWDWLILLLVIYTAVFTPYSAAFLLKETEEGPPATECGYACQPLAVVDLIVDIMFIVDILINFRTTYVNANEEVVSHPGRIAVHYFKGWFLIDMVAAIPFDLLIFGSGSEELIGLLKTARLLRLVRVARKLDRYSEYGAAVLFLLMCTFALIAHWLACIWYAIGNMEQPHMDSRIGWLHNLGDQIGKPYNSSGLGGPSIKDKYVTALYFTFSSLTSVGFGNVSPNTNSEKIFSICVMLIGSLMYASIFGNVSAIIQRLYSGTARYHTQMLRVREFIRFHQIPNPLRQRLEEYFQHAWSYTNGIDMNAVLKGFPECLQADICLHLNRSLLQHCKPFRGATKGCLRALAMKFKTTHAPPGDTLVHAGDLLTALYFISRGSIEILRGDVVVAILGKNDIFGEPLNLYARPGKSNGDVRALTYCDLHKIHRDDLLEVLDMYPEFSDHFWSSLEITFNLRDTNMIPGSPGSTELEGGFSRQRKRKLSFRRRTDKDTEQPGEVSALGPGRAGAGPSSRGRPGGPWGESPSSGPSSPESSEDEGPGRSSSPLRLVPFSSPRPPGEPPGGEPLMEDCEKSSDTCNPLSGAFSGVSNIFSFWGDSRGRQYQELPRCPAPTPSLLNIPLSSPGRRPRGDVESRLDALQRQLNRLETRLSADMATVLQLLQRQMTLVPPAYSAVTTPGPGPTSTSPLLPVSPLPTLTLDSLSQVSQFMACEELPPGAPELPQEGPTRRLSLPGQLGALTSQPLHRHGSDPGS

Row | Compound | hERG current change (%, negative = inhibition) at 1uM [%]
1 | Br.Cc1ccc(Nc2nc(-c3ccc(S(=O)(=O)N4CCCC4)cc3)cs2)cc1C | 7.01
2 | COc1cc(/C=C2\SC(=S)N(NC(=O)c3ccccc3O)C2=O)ccc1O | 15.7
3 | CCC(C)(C#CCN1CCCCC1)OC(C)=O (centres unmarked) | 9.81
4 | Cn1ccnc1C(=O)c1cc(=O)c2ccccc2o1 | 12.2
5 | CCCC(=O)Nc1cc(C(=O)O)ccc1S(=O)(=O)c1ccc(Cl)cc1 | 7.61
6 | COCCn1c(SCc2ccc(C(=O)OC)o2)nc2ccccc2c1=O | 1.26
7 | O=C(COC(=O)c1ccc(Cl)c(S(=O)(=O)N2CCCC2)c1)NC1CCCCC1 | 8.02
8 | Cc1ccc(CNC(=O)CN2C(=O)NC(C)(c3ccc(Cl)cc3)C2=O)cc1 (centres unmarked) | 9.96
9 | CCCC(C)c1nnc(NC(=O)C2CCCO2)s1 (centres unmarked) | 8.36
10 | Cc1nc2ccc(S(=O)(=O)Nc3cccc(-c4nc5cccnc5s4)c3)cc2s1 | 15
11 | Cc1ccc(-n2ncc(Cl)c2C(=O)NCc2ccccc2)cc1 | 13.6
12 | COc1cc(/C=C/c2ccc3cccc(O)c3n2)c(Br)cc1O | 16.3
13 | CC1C/C(=C\c2cccnc2)C(=O)/C(=C/c2cccnc2)C1 (centres unmarked) | -28.3
14 | CCCCN(CCCC)CCNC(=O)CN1C(=O)CSc2ccc(S(=O)(=O)N3CCCCC3)cc21 | -51.7
15 | COc1cc(/C=C2\SC(=S)N(CC(=O)O)C2=O)ccc1OS(=O)(=O)c1ccc(C)cc1 | 18.1
16 | O=C(Nc1ccccc1)n1ccc(-c2ccc(-n3ccnc3)cc2)n1 | 15.5
17 | CCOC(=O)/C=C/C(=O)OCC(=O)Nc1ccc(OC)c(Cl)c1 | 7.98
18 | CCOC(=O)c1c(NC(=O)Nc2ccccc2)sc(C)c1C | 5.5
19 | NC(=O)c1cc(S(=O)(=O)N2CCN(c3cccc(Cl)c3)CC2)cs1 | 18.9

Row | Compound | hERG current change (%, negative = inhibition) at 1uM [%]
20 | CCCN(CCC)Cc1c(C(=O)OCC)nnn1-c1nonc1N | 9.71
21 | CCOC(=O)Nc1nc(-c2ccc(Cl)cc2Cl)cs1 | 15.8
22 | S=C(NCC1COc2ccccc2O1)Nc1ccccc1 (centres unmarked) | 5.07
23 | COCCn1c(SCC(=O)Nc2ccc(F)cc2)nc2c([nH]c3ccccc32)c1=O | 2.51
24 | COc1ccccc1NC(=O)C1CCN(S(=O)(=O)c2cccs2)CC1 | 6.49
25 | CCN(C(=O)COC(=O)c1oc2ccc(OC)cc2c1C)C1CCCCC1 | 6.9
26 | COc1cc([C@H]2Oc3c(OC)cc(CCCO[C@@H]4O[C@H](CO)[C@@H](O)[C@H](O)[C@H]4O)cc3[C@@H]2CO)ccc1O | 3.87
27 | CN1CCN(Cc2nc3c([nH]2)c(=O)[nH]c(=O)n3C)CC1 | 3.65
28 | Cc1cc(-c2ccccc2)nc(N/N=C/c2ccco2)n1 | 7.11
29 | O=C(N/N=C/c1cccs1)c1ccc2c(c1)OCO2 | -1.52
30 | Oc1ccc2ccccc2c1C=Nc1ccc(Cl)cn1 | 4.56
31 | Cc1ccc(-c2nnc(Cc3ccc(Cl)cc3)o2)cc1 | 10.6
32 | CCN(CC(=O)Nc1ccc(Cl)c(S(=O)(=O)N(C)C)c1)Cc1nc2ccccc2c(=O)[nH]1 | 5.07
33 | Cc1ccc(-c2nc3c(c(SCC(=O)N4CCOCC4)n2)Cc2c(CO)cnc(C)c2O3)cc1 | 14.2
34 | COc1cccc(/C=C/c2n[nH]c(=O)c(C#N)c2C)c1 | 9.7
35 | CCOC(=O)c1c(-c2ccc(C)cc2)csc1NC(=O)C1CC=CCC1C(=O)O (centres unmarked) | 3.01
36 | CC(C)OC(=O)c1cc2c(ccn2-c2ccc(F)cc2)n1CC(=O)N1CCN(C(=O)c2ccco2)CC1 | -5.88
37 | CCOC(=O)c1ccc2c(c1)nc(-c1ccccn1)n2CC | 11
38 | N/C(=N\OC(=O)c1ccccc1Cl)c1cccc([N+](=O)[O-])c1 | 10.9

Row | Compound | hERG current change (%, negative = inhibition) at 1uM [%]
39 | O=C(NN1C(=O)c2ccccc2NC1c1ccco1)c1ccccc1 (centres unmarked) | 4.38
40 | CCOC(=O)CC1C(=O)NCCN1S(=O)(=O)c1ccc(OC)cc1 (centres unmarked) | 10.7
41 | O=C(Nc1cccnc1)c1cc(-c2ccccc2)on1 | 11.2
42 | COc1ccc(-c2cccc(C3CC=CC4C3C(=O)N(Cc3ccccc3)C4c3ccc(C(F)(F)F)cc3)c2)cc1 (centres unmarked) | 9.28
43 | FC(F)(F)c1nc2ccccc2nc1N/N=C/c1ccc(Cl)cc1 | 4.54
44 | N#C/C(=C\c1cn(-c2ccccc2)nc1-c1cccnc1)c1nnc2n1CCCCC2 | -20.4
45 | O=C(O)c1ccc(/C=N/NC(=O)c2ccc(F)cc2)cc1 | 14.9
46 | CCCc1cc(C(=O)Nc2cc(OC)ccc2OC)cs1 | 13.4
47 | O=C(CCCOc1ccc(Cl)cc1Cl)N/N=C\C1CCCCC1 | 6.47
48 | CS(=O)(=O)c1ccc(-c2nnn(CC(N)=O)n2)cc1 | 10.6
49 | Cc1nc(NCC2CCCO2)c2oc3ccccc3c2n1 (centres unmarked) | -7.63
50 | Cc1ccc(C(=O)Nc2ccc3c(c2)OCCO3)o1 | 2.34
51 | CSCCC(NC(=O)c1ccc([N+](=O)[O-])cc1Cl)C(=O)OC(C)C(=O)NCc1ccco1 (centres unmarked) | -10.7
52 | COc1ccc(-c2c(C)n([O-])c(C)c(C)[n+]2=O)cc1 | -0.35
53 | CCCCn1c(N)c(N(Cc2ccccc2OC)C(=O)c2ccc([N+](=O)[O-])s2)c(=O)[nH]c1=O | 7.38
54 | Nc1nnc(Cc2c[nH]c3ccccc23)s1 | 1.91
55 | O=c1c(C=NCc2cccs2)c(O)n(C2CCCCC2)c(=O)n1C1CCCCC1 | 18.2
56 | CCCn1c(NC(=O)c2ccc(Cl)c(S(=O)(=O)N3CCCC3)c2)nc2ccccc21 | 8.81
